The whole screen tested about 150,000 compounds, of which about 540 (0.36%) showed an effect of 50% or more. The list shows a part of the results.
Each molecule was assayed on Plasmodium falciparum (assay: Primary screen in NF54 nanoGlo assay, in single point, at 2uM, 72h; a lower Z score goes with more inhibition). Settings: timepoint 72 hour.
Assay type: functional, Erythrocyte

Row | SMILES | % Inhibition | Z score
1 | CC(C)=CCN1C(=O)[C@@H]2CC[C@H]1CN(C(=O)c1ccc3[nH]c(C)c(C)c3c1)C2 | -6% | 1.04
2 | O=S(=O)(CCNS(=O)(=O)c1c(Cl)cc(Br)cc1Cl)NC1CC1 | -8% | 1.45
3 | c1ccc(-n2nc(-c3nc(-c4ccccn4)no3)nc2C2CC2)cc1 | -21% | 2.09
4 | Cc1cccc2nc(CN3CCCCC3)cc(=O)n12 | 0% | -0.04
5 | CCOc1cc2cnc(N3CCCCC3)cc2cc1OCC | -12% | 1.68
6 | Cc1cc(C)nc(CN(C)Cc2cc(C#N)n(C)c2)c1 | -10% | 1.7
7 | O=C(NC[C@H]1Cn2cccc2C(=O)N1Cc1cccnc1)c1ccco1 | -4% | 0.73
8 | Cc1cccc(C(=O)O[C@@H](C)CN2CCCC2)c1 | -4% | 0.48
9 | COc1ccc(-c2cc(-c3ccccc3)nc(N3CCC(C)CC3)n2)cc1 | 43% | -9.15
10 | COc1ncc(CN(C)Cc2noc(C)n2)cn1 | -2% | 0.27
11 | CC(C)CNC(=NCc1cccs1)[C@H](C#N)C(=O)Nc1ccnn1C | 32% | -3.61
12 | CC1CN(C[C@@H](O)c2ccccc2)CC(c2ccsc2)O1 (stereo partly drawn) | -4% | 0.59
13 | COCCC(=O)NCc1cccnc1N1CCCCCCC1 | -10% | 0.89
14 | CC(C)(C)n1cc(C(=O)N2CCC[C@H](n3ccnn3)C2)nn1 | -6% | 1.07
15 | Cc1cc(NCc2ccnc(N3CCCCCC3)c2)nc(N)n1 | -5% | 0.77
16 | CN(CCN1CCOC1=O)c1nnc(Cc2ccccc2)s1 | -4% | 0.79
17 | O=C1C[C@H](c2ccncc2)c2cn(Cc3ccccc3)c3cccc(c23)N1 | 2% | -0.42
18 | CCCCNC(=O)CN(C)S(=O)(=O)c1ccc2c(c1)nnn2[C@@H](C)CC | -16% | 1.44
19 | O=C(Cc1coc2c(F)c(F)ccc12)N[C@@H]1CCC[C@@H]1n1ccnc1 | -12% | 1.81
20 | CCN(Cc1nc2c(cnn2C)c(=O)[nH]1)C1CCCCC1 | -31% | 3.63
21 | Cc1ccc(-c2nc3cccnc3n2CCN2CCN(C(=O)Nc3cc(Cl)ccc3C)CC2)cc1 | 12% | -1.57

Row | SMILES | % Inhibition | Z score
22 | COC(=O)c1ccc(N(C)Cc2nnc3ccccn23)nn1 | -6% | 0.74
23 | FC(F)(F)Cc1nnc([C@@H]2CCCCN2)o1 | -15% | 1.5
24 | C=CCN1C(=O)COc2ccc(-c3nc(NC(=O)c4ccccc4OC)sc3C)cc21 | -12% | 1.9
25 | Cn1nc(C(F)F)c2cc(C(=O)N3CCCC3C3COCCC3(C)O)sc21 (stereo not drawn) | 14% | -1.59
26 | CC[C@H](NC(=O)c1ccnc(NC(=O)C(C)C)c1)c1c(C)noc1C | 22% | -2.83
27 | CC1(C)OC(=O)N(CC(=O)N2CCC(c3ncon3)CC2)C1=O | -7% | 0.65
28 | COc1ccc(CNC(=O)COc2ncnc3onc(-c4cccc(F)c4)c23)c(OC)c1 | 3% | -0.46
29 | O[C@@]1(C(F)(F)F)CCCN(Cc2nc(C3CCCC3)no2)C1 | 4% | -0.66
30 | COc1ccc(C2C(CNC(=O)Cn3cccn3)CCCN2C)cc1 (stereo not drawn) | -11% | 2.03
31 | O=C(c1cnccn1)N1CCO[C@H](c2ccccc2)CC1 | 1% | -0.14
32 | Cc1ccc(NC(=O)NCCCNC(=O)C2CCC2)nc1 | -14% | 1.44
33 | CN(Cc1ncc[nH]1)Cc1cccn1-c1cccc(C#N)c1 | -2% | 0.22
34 | Cc1ccc(Cc2nc(CN(C)C(=O)OC(C)(C)C)no2)o1 | -4% | 0.73
35 | Cc1cc(C(=O)NCCc2cnn(-c3ccccc3)c2)cc(=O)[nH]1 | -7% | 1.22
36 | CC(C)c1cc(-c2ccc(O)cc2)nc(C(F)(F)F)n1 | 1% | -0.22
37 | NCC(=O)N1CCc2nc(-c3ccncc3)nc(N3CC=CC3)c2CC1 | 0% | -0.03
38 | Cc1nn(C)c(C)c1CN1CCC[C@H]1c1nnc2n1CCN(C(=O)C(C)C)CC2 | 5% | -0.94
39 | COc1ccc(NC(=O)[C@@H]2CC(=O)Nc3cc(-c4ccccc4)nn32)cc1 | -9% | 1.29
40 | Cn1nc(C(=O)N2CCC3(CCCCCC3)C2)c2c1CCC(=O)C2 | -6% | 0.98
41 | CC[C@](C)(NCCCS(C)(=O)=O)c1nccs1 | -14% | 1.66
42 | COC(=O)c1cccc(C(=O)OC2CCCC2)n1 | -13% | 1.75

Row | SMILES | % Inhibition | Z score
43 | N#Cc1nccnc1N1CCC[C@H](S(=O)(=O)NC2CCCC2)C1 | 1% | -0.06
44 | Cc1ccc(CN(Cc2ccc(F)cc2)C(=O)CN(C(=O)NC(C)(C)C)C2CC2)o1 | -4% | 0.51
45 | CC(C)CC(=O)Nc1ccc2c(c1)cc(C(=O)Nc1ccc(C(F)(F)F)cc1)n2Cc1ccc(C(C)(C)C)cc1 | -11% | 1.46
46 | Cc1cc(C)c(C(=O)N(C)CC(C)(CO)CO)c(C)c1 | -8% | 0.98
47 | O=C(NCc1ccc(N2CCCC2=O)cc1)C1CCCCC1C(=O)N1CCc2ccccc21 (stereo not drawn) | -4% | 0.56
48 | Cc1ccncc1CC(=O)Nc1cc(S(=O)(=O)N2CCOCC2)ccc1F | -8% | 1.06
49 | CC(C)[C@H](NS(=O)(=O)c1cccc(C#N)c1)C(N)=O | -19% | 3.48
50 | Cc1cc(CN(C)C(=O)c2cc3c(s2)CCCCCC3)no1 | -8% | 1.26
51 | O=C(Nc1ccc(N2CCC[C@H](CN3CCCC3)C2)c(C(=O)O)c1)c1ccc(Br)cc1 | -9% | 0.84
52 | O=C1c2ccccc2NC(c2ccccn2)N1CC1CCCO1 (stereo not drawn) | 3% | -0.51
53 | COc1cccc(-c2nc(C)nc3c2cnn3C)c1 | -5% | 1.07
54 | COc1ccc(NC(=O)[C@@H]2CC(=O)Nc3c(C)c(-c4cccc(Cl)c4)nn32)cc1 | -19% | 2.47
55 | O=C(N[C@H]1CCc2ncccc2C1)c1cccc(B(O)O)c1 | -4% | 0.45
56 | Cc1cc(C[C@@H]2COC[C@@H]2NC(=O)CN(C)Cc2ccccc2F)on1 | -5% | 0.64
57 | CC1=C(CCN2CCN[C@H](C(=O)NCc3cccnc3)C2)C(C)(C)CCC1 | -16% | 3.13
58 | Cc1nc(C)n(C[C@H](O)COCc2ccc3c(c2)OCO3)n1 | 0% | -0.04
59 | C/C=C/Cc1nnc(C(=O)N(C)C[C@H]2CCCCO2)o1 | -2% | 0.28
60 | CN(c1ccc(C#N)cn1)[C@H]1CCN(CC(F)(F)F)C1=O | -9% | 1.14
61 | CCC(C)(C)NCc1cc(Cl)cc(Cl)c1OC | -1% | 0.2
62 | CCOc1ccccc1C(=O)N1CCC[C@H](CCc2noc(-c3ccccn3)n2)C1 | 3% | -0.56
63 | COc1ccccc1N1C(=O)[C@@H]2Cc3c([nH]c4ccccc34)CN2C1=O | 0% | 0

Row | SMILES | % Inhibition | Z score
64 | O=C(c1cccc(-n2ccnc2)n1)N1CCN[C@H](c2cccc(Cl)c2)C1 | -27% | 3.18
65 | C[C@H]1CN(C(=O)C2CCCC2)C[C@@H]1c1nc(-c2ccccc2)no1 | -5% | 0.58
66 | COC(=O)Cc1ccc(F)c(-c2ccc(C(=O)N[C@H]3CCNC3=O)cc2)c1 | -3% | 0.45
67 | COCc1cc(CNC(C)CC2CCCO2)ccc1F (stereo not drawn) | -3% | 0.34
68 | CN(CCc1noc(COc2ccc(Cl)cc2)n1)S(=O)(=O)c1ccccc1 | -18% | 1.77
69 | CNC(=O)[C@H]1CCN(S(=O)(=O)c2sccc2Cl)C1 | -9% | 1.49
70 | CC(C)NC(=O)CN[C@@H](CO)c1ccc(Cl)c(F)c1 | -9% | 1.07
71 | COc1cccc(Cl)c1CN[C@H]1CCCc2occc21 | -24% | 2.8
72 | Cc1cccc2ncnc(N3CCC(N4CCCS4(=O)=O)CC3)c12 | 0% | 0.04
73 | O=C(Nc1ccccc1Cl)N1CC(F)(F)C[C@H]1CN1CCCCCC1 | -13% | 2.28
74 | Cc1cccnc1N(C(=O)c1ccc(F)cc1)C(=O)c1ccc(F)cc1 | 1% | -0.17
75 | Cc1ccc([C@]2(C)NC(=O)N(CC(=O)Nc3cccc(C)c3C)C2=O)o1 | 1% | -0.09
76 | Cc1ccc(C(=O)[C@@H]2[C@@H]3CCCN3[C@]3(C(=O)Nc4ccc(Cl)cc43)[C@@]23C(=O)Nc2ccccc23)cc1 | -6% | 0.75
77 | Cn1c(-c2cnn(Cc3ccccc3)c2)nc2cc(Br)ccc21 | -3% | 0.39
78 | Cc1ccc(C)n1-c1nc2ccc(C(=O)N[C@@H]3C=CS(=O)(=O)C3)cc2s1 | 16% | -2.15
79 | Cc1n[nH]c(C)c1CN(C)C[C@H]1CCCN(Cc2ccco2)C1 | -10% | 1.51
80 | CCCn1cc(CNc2nnc(C(F)F)s2)cn1 | -11% | 1.67
81 | Cc1ccc(Cl)c(NC(=O)N(C)C[C@H]2CC(=O)N(C(C)(C)C)C2)c1 | -10% | 0.93
82 | O=S1(=O)CCCC1CNC(c1ccc(F)cc1)c1ncc[nH]1 (stereo not drawn) | -15% | 1.7
83 | Cc1nc([C@H](NC(=O)CCc2nc(-c3ccsc3)no2)c2ccccc2)n[nH]1 | -5% | 0.77
84 | CN(CCS(=O)(=O)NCC1CCCCC1)S(=O)(=O)c1cccs1 | -8% | 1.2
